From PubChem BioAssay AID493208 (National Center for Advancing Translational Sciences (NCATS), 2011)
The whole screen tested about 44,000 compounds, of which about 340 (0.77%) were called active. Roughly 5% stayed inconclusive and do not appear here. Calls follow the shape of the dose curve; as a rule, active = well fitted inhibition curve with a large enough effect; inconclusive = small, poorly fitted or top-dose-only effect; inactive = flat fitted curve, though single readings scatter. Some of the results follow.

assay: Acumen qHTS Assay for Inhibitors of the mTORC1 Signaling Pathway in MEF (Tsc2-/-, p53-/-) Cells: Sytravon; settings: phospho-rpS6 immunofluorescence/PI, 24 h; series mostly up to 38.3 µM; activity change, negative = inhibition: at the top concentration; also: nearly all actives have a fitted effect of over 50% in size;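 as to activity change, negative = inhibition: plate controls were DMSO for no effect and rapamycin for full effect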
How it was run: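 Immunofluorescence of rpS6 phosphorylation in Tsc2-/-, p53-/- MEFs after 24 h compound exposure, normalized to propidium iodide signal. Activity is expressed as % positive cells, thresholded with 7.5 nM rapamycin.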
Potency is read from the fitted curve at half-maximal effect.

| Compound | activity change, negative = inhibition | Potency |
| --- | --- | --- |
| Cc1cc(OCC(=O)NCCc2nc3ccccc3[nH]2)cc(C)c1Cl | inactive: -4.79% |  |
| Cc1ccc(S(=O)(=O)C(CNC(=O)c2c(F)cccc2F)c2ccco2)cc1 (stereo unspecified) | inactive: -5.02% |  |
| Cc1cccc(C(=O)N2CCc3cc(CNC(=O)c4cc5ccccc5[nH]4)ccc32)c1 | inactive: -2.6% |  |
| CCn1nc(C)c(CCN(C)C(=O)Nc2cccc(Cl)c2C)c1C | inactive: 0% |  |
| Cc1ccc(CNC(=O)C(C)n2c(=O)cc(C(F)(F)F)c3c(C)nn(C)c32)cc1 (stereo unspecified) | inactive: -9.59% |  |
| O=S(=O)(c1ccccc1)c1nc(-c2ccccc2Cl)oc1N1CCCCCC1 | inactive: -11.3% |  |
| Cc1cc(C)c(S(=O)(=O)NCCS(=O)(=O)N2CCN(c3ccccc3)CC2)c(C)c1 | inactive: -0.498% |  |
| CCOc1ccc(CCNC(=O)C2CCCN(S(=O)(=O)N(C)c3ccc(F)cc3)C2)cc1 (stereo unspecified) | inactive: -16.9% |  |
| CCS(=O)(=O)N1CCc2cc(C(=O)NCc3ccccc3OC)ccc21 | inactive: -1.31% |  |
| Cc1ccccc1-c1nc2scc(CCNC(=O)c3ccco3)n2n1 | inactive: -10% |  |
| COc1cccc(NC(=O)C2CCC(CNS(=O)(=O)c3ccc4c(c3)CCCC(=O)N4)CC2)c1 (stereo unspecified) | inactive: -11.8% |  |
| COc1cccc(NC(=O)C2CCN(c3ccc(Sc4ccc(C)cc4)nn3)CC2)c1 | inactive: -0.424% |  |
| COc1ccc(NC(=O)CN2C(=O)COc3ccc(S(=O)(=O)N4CCOCC4)cc32)cc1 | inactive: 0.873% |  |
| O=C(CSc1nc(=O)n(Cc2ccco2)c2c1CCC2)NCc1ccccc1 | inactive: -7.17% |  |
| Clc1ccccc1OCCSc1nnc(-c2cccs2)o1 | inactive: 0.133% |  |
| CCc1ccc2oc(-c3ccc(C)c(NC(=O)/C=C/c4ccco4)c3)nc2c1 | inactive: 5.71% |  |
| Cc1ccc2nc(/C(C#N)=C/c3ccccc3F)[nH]c2c1 | inactive: 6.68% |  |
| Cc1cccc(OCCSc2nnc(-c3cccs3)o2)c1 | inactive: -0.351% |  |
| Cc1sc2ncn(CC(=O)N3CCN(c4ccccc4F)CC3)c(=O)c2c1S(=O)(=O)N1CCC(C)CC1 | inactive: 2.88% |  |
| COc1ccc(Cl)cc1-n1cc(-c2ccccc2)nc1SCC(=O)Nc1ccc(C)cc1 | inactive: -3.52% |  |
| O=C(NC1CCCC1)c1ccc2c(=O)n(Cc3ccccc3)c(SCc3ccccc3F)nc2c1 | inactive: -6.11% |  |
| COc1ccccc1CNC(=O)C1CCN(c2nc3ccc(C)cc3[nH]2)CC1 | inactive: -8.23% |  |
| COc1ccc(-c2cc(-c3ccc(C)cc3)nc3c2COc2ccccc2-3)cc1 | inactive: -0.521% |  |
| CCC(Cn1nnc2ccccc2c1=O)NC(=O)Nc1ccccc1OC (stereo unspecified) | inactive: -8.12% |  |

| Compound | activity change, negative = inhibition | Potency |
| --- | --- | --- |
| Cc1ccc(S(=O)(=O)c2nc(-c3ccc(F)cc3)oc2SCC(=O)NC2CCCCC2)cc1 | inactive: 0.229% |  |
| COc1ccc(CCNC(=O)c2ccc3c(c2)CCN3S(C)(=O)=O)cc1OC | inactive: 1.15% |  |
| COc1ccc2c(CNCCc3ccc(SC)cc3)c(C(=O)O)n(Cc3ccc(F)cc3)c2c1 | inactive: 0% |  |
| COc1ccc2c(c1)c(=O)c(C(=O)c1ccccc1)cn2CC(=O)Nc1ccc2c(c1)OCO2 | inactive: 0.917% |  |
| COc1ccc(Cn2cc(S(=O)(=O)c3ccc(C)cc3)c(=O)c3cc(F)ccc32)cc1 | inactive: 1.89% |  |
| Cc1nc(-c2ccc(S(=O)(=O)Nc3cc(Cl)ccc3C)cc2)co1 | inactive: -12.7% |  |
| CCS(=O)(=O)c1ncc(Cl)c(C(=O)N2CCN(c3ccc(OC)cc3)CC2)n1 |  | active: 3.29 µM |
| CCOc1ccc(NC(=O)c2oc3ccccc3c2NC(=O)COc2cccc(OC)c2)cc1 | inactive: -12.4% |  |
| Cc1cccc(CN2C(=O)c3ccccc3Sc3ccc(C(=O)NCc4ccco4)cc32)c1 | inactive: 5.82% |  |
| NS(=O)(=O)c1ccc(CCNC(=O)C2CCN(c3ncnc4c3nc3n4CCCCC3)CC2)cc1 | inactive: -5.89% |  |
| CCC(Sc1nc2c(sc3ccccc32)c(=O)n1CCc1ccc(OC)c(OC)c1)C(=O)N(CC)CC (stereo unspecified) | inactive: 1.45% |  |
| CCC(CC)C(=O)Nc1nnc(S(=O)(=O)N2CCCCCC2)s1 | inactive: -9.96% |  |
| Cc1cn2c(=O)cc(COC(=O)c3ccc(NC(=O)c4ccc(F)cc4)cc3)nc2s1 | inactive: 33.3% |  |
| CCOC(=O)c1ccc(NC(=O)c2cnn3c(=O)c4c(n(CC)c23)CCN(Cc2ccc(OC)cc2)C4)cc1 | inactive: 0% |  |
| COC(=O)c1ccc(Nc2ncnc3c2cnn3C)cc1 | inactive: 2.04% |  |
| CC1CCN(S(=O)(=O)N2CCC(C(=O)NCc3ccccc3Cl)CC2)CC1 | inactive: 6.6% |  |
| COc1ccc(CNC(=O)Cc2c(C)c3cc4c(C)coc4cc3oc2=O)cc1OC | inactive: 2.46% |  |
| COc1ccc(C2c3[nH]c4ccccc4c3CCN2C(=O)CCC2CCCC2)cc1 (stereo unspecified) | inactive: -8.19% |  |
| CCN(CC)c1ccc(NC(=O)c2cc(C)nc3c2c(C)nn3-c2ccc(C)cc2)c(C)c1 | inactive: -0.643% |  |
| CC(Sc1nccn1C)C(=O)Nc1ccccc1C#N (stereo unspecified) | inactive: -3.23% |  |
| COc1ccc(-c2nc3scc(CCNS(=O)(=O)c4ccc(Oc5ccccc5)cc4)n3n2)cc1OC | inactive: -1.63% |  |
| Cc1ccsc1CCN1C(=O)N(c2ccccc2)C(=O)C1CC(=O)Nc1ccc(Cl)cc1 (stereo unspecified) | inactive: -5.31% |  |
| CCN(CC)C(=O)c1sc2c(c1C)c(=O)n(-c1ccc(C)c(C)c1)c(=O)n2Cc1cc(=O)n2ccccc2n1 | inactive: 0.174% |  |
| O=C(CNC(=O)c1ccccc1)OCc1cc(=O)n2nc(C3CCCCC3)sc2n1 | inactive: 4.17% |  |

| Compound | activity change, negative = inhibition | Potency |
| --- | --- | --- |
| Cc1ccc2sc(N(Cc3cccnc3)C(=O)CCS(=O)(=O)c3ccccc3)nc2c1C | inactive: -4.29% |  |
| COc1ccc(N2CCN(C(=O)CSc3nc(-c4ccc(C(C)C)cc4)no3)CC2)cc1 | inactive: 3.67% |  |
| CC(=O)c1cccc(NC(=O)Nc2sc3nc4n(c(=O)c3c2C)CCC(C)CC4)c1 (stereo unspecified) | inactive: -1.12% |  |
| CCN(CC)C(=O)c1sc2c(c1C)c(=O)n(Cc1ccccc1)c(=O)n2Cc1ccccc1C | inactive: -15.6% |  |
| Clc1ccc(CN2CCN(c3ncnc4sc5c(c34)CCCC5)CC2)cc1Cl | inactive: -5.89% |  |
| COc1ccc(CNC(=O)Cc2c(C(=O)O)c(C)cn2C)cc1 | inactive: -5.65% |  |
| COc1ccc(-c2nc3scc(CCNS(=O)(=O)c4ccc5c(c4)OCCO5)n3n2)cc1OC | inactive: -0.896% |  |
| O=C(NCc1ccc(F)cc1Cl)c1cc(=O)[nH]c2ccc(S(=O)(=O)N3CCCCC3)cc12 | inactive: -0.915% |  |
| CCOc1ccc(C(=O)Nc2c(C(=O)Nc3ccccc3OC)oc3ccccc23)cc1OCC | inactive: -3.33% |  |
| Cc1cc(C)cc(OCCSc2nc3ccc(NC(=O)c4cccs4)cc3s2)c1 | inactive: -6.25% |  |
| Cc1c(-c2ccccc2)c(=O)oc2ccc(OC(=O)N3CCOCC3)cc12 | inactive: -3.44% |  |
| O=C(Cn1cc(C(=O)C2CCCCC2)c2ccccc21)Nc1ccccc1Cl | inactive: -9.07% |  |
| COc1ccc2c(C)c(CC(=O)NCCc3ccc(Cl)cc3)c(=O)oc2c1C | inactive: 1.85% |  |
| CCOc1ccc(NC(=O)CSC2=Nc3ccccc3C3=NC(CC(=O)NCc4cccs4)C(=O)N23)cc1 (stereo unspecified) | inactive: 0.502% |  |
| COc1cc(-c2cc(OC)c3c(C)oc(C)c3c(=O)c2)ccc1OC(=O)c1ccc(C)cc1 | inactive: -0.0619% |  |
| O=C(CSc1n[nH]c(-c2ccccc2Cl)n1)NCCCc1ccccc1 | inactive: 4.45% |  |
| Cc1ccc(-c2cn3c(n2)sc2cc(C(=O)NCCCN4CCCCCC4)ccc23)cc1 | inactive: -0.388% |  |
| CC(CCc1ccccc1)NC(=O)Cn1c(=O)nc(-c2ccccc2)c2cc(Cl)ccc21 (stereo unspecified) | inactive: 0% |  |
| CCc1ccc2oc(C(=O)N(Cc3ccc(N(C)C)cc3)Cc3ccco3)c(C)c2c1 | inactive: 3.05% |  |
| CC1=C(c2ccc(C)c(C)c2)S(=O)(=O)N=C1N1CCC(C(=O)NC(C)c2ccccc2)CC1 (stereo unspecified) | inactive: 8.28% |  |
| CCCN(CCC)C(=O)c1cc2c(=O)n3cccc(C)c3nc2s1 | inactive: -1.35% |  |
| CC(=O)c1cccc(NC(=O)C2CCN(c3ncnc4c3nc3n4CCCCC3)CC2)c1 | inactive: -19.8% |  |
| O=C1c2ccccc2-c2onc3c(N4CCN(C5CCCCC5)CC4)cc(NCCO)c1c23 | inactive: 5.13% |  |
| CCCN(Cc1cccs1)C(=O)Nc1cc(C)cc(C)c1 | inactive: -1.5% |  |

| Compound | activity change, negative = inhibition | Potency |
| --- | --- | --- |
| Cc1nn(C)c2c1c(-c1ccccc1)cc(=O)n2Cc1ccc(F)cc1Cl | inactive: -9.89% |  |
| CCN(CC)C(=O)Cn1c(=O)n(-c2ccc(Cl)cc2)c(=O)c2c3c(sc21)CCCCC3 | inactive: -1.17% |  |
| COc1ccc(-c2nc3ccccc3o2)cc1NC(=O)c1cccc2c(Cl)cccc12 | inactive: -0.579% |  |
| COc1ccc(NC(=O)CC2C(=O)N(c3ccc(OC)cc3)C(=O)N2Cc2ccc(OC)c(OC)c2)cc1 (stereo unspecified) | inactive: -3.27% |  |
| CCOc1ccc(N2CC(NC(=O)Cc3cccs3)CC2=O)cc1 (stereo unspecified) | inactive: 0.0048% |  |
| CCOc1ccc(CCNC(=O)CCn2c(=O)c3cccn3c3ccc(F)cc32)cc1OCC | inactive: -6.76% |  |
| CCOc1ccc(NC(=O)CCc2c(C)nc3c4c(C)cc(C)nc4nn3c2C)cc1 | inactive: -13.1% |  |
| CN(Cc1ccccc1)c1ccc2cc(S(=O)(=O)N3CCCCC3)ccc2n1 | inactive: -5.06% |  |
| Cc1ccc(C)c(CSc2cn(CC(=O)N3CCCC3)c3ccccc23)c1 | inactive: -13.9% |  |
| COc1ccc2cc(-c3nc(-c4ccc(N(C)C)cc4)no3)c(=O)oc2c1 | inactive: -9.7% |  |
| COc1ccc(N2CCN(C(=O)c3ccc4c(c3)CCN4S(=O)(=O)c3ccccc3)CC2)cc1 | inactive: -6.37% |  |
| COc1cccc(-c2cc(C(=O)NCc3ccccc3)no2)c1 | inactive: 5.61% |  |
| Cc1c(C(=O)N(C)Cc2ccccc2)sc2nc(-c3ccc(F)cc3)cn12 | inactive: 0.906% |  |
| COc1cc(NC(=O)CSc2cc(=O)n(C)c3ccccc23)cc(OC)c1OC | inactive: 1.36% |  |
| COCCCNC(=O)C1CCN(Cc2cc3ccccc3n2Cc2cccc(Cl)c2)CC1 | inactive: 0.349% |  |
| Cc1ccc(-c2cn3c(n2)sc2cc(C(=O)NC4CCCCCC4)ccc23)cc1 | inactive: 1.75% |  |
| Cc1cc(C)n2nc(CNC(=O)c3cccc(N(C)C)c3)nc2n1 | inactive: -3.04% |  |
| CCC12CN3CC(CC)(CN(C1)C3c1c[nH]c3ccccc13)C2=O (stereo unspecified) | inactive: -6.48% |  |
| Cc1noc2ncnc(NCCc3ccccc3)c12 | inactive: -2.99% |  |
| COc1ccc(NS(=O)(=O)c2ccc3c(c2)CC(C)N3C(=O)C2CCC2)cc1OC (stereo unspecified) | inactive: -16.5% |  |
| Cc1ccc(NS(=O)(=O)c2ccc3nc(-c4ccccc4)[nH]c3c2)cc1Cl | inactive: -5.54% |  |
| COc1ccc(Br)cc1CNC(=O)C1CCN(c2nnc(-n3cccc3CNc3ccc(C)cc3)s2)CC1 | inactive: -2.17% |  |
| CCn1cc(C(=O)N(C)c2cc(C)ccc2C)c2cc(OC)c(OC)cc2c1=O | inactive: 14.6% |  |
| O=S(=O)(Nc1nc2n(n1)C(c1ccc(F)cc1)C=C(c1ccc(Cl)cc1)N2)c1ccccc1 (stereo unspecified) | inactive: 2.28% |  |
